In all, about 39,000 compounds went through this assay and about 220 (0.56%) showed activity. The list shows a part of the results.
These molecules were tested on Escherichia coli K-12 BW25113 (assay: relative growth (OD600 normalised to plate interquartile mean) (fraction); higher = less growth inhibition, active = 0.2 or less). Conditions: 50 µM; LB; incubation time: overnight (16-24 h).
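Further: static incubation at 37 °C against the wild-type strain, values averaged over two biological replicates.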

Structure (SMILES)	relative growth
C[C@H](CO)N1C[C@H](C)[C@H](CN(C)S(=O)(=O)c2ccc(C(F)(F)F)cc2)OCc2ccccc2-c2c(n(C)c3ccccc23)C1=O	inactive: 1.03
C[C@H](CO)N1C[C@H](C)[C@@H](CN(C)S(C)(=O)=O)Oc2c(NC(=O)CCCCCC(=O)Nc3ccccc3N)cccc2C1=O	inactive: 0.974
COc1ccc(S(=O)(=O)N[C@@H]2C=C[C@H](CC(=O)N3CCN(c4ccccc4)CC3)O[C@@H]2CO)cc1	inactive: 0.992
C[C@@H]1CN([C@H](C)CO)C(=O)c2cccc(NS(=O)(=O)c3cn(C)cn3)c2O[C@@H]1CN(C)Cc1ccc(C(=O)Nc2ccccc2N)cc1	inactive: 0.995
Cn1c(=O)[nH]c(=O)c2c1ncn2CCNCc1ccco1	inactive: 0.913
C[C@@H]1CN([C@@H](C)CO)C(=O)c2cccc(NC(=O)c3cnccn3)c2O[C@H]1CN(C)Cc1ccc(C(=O)O)cc1	inactive: 0.993
C[C@@H]1CCCCO[C@@H](CN(C)C(=O)CCCN(C)C)[C@H](C)CN([C@@H](C)CO)C(=O)c2cc(NC(=O)Nc3ccc(C(F)(F)F)cc3)ccc2O1	inactive: 0.954
C[C@@H]1CN([C@@H](C)CO)C(=O)c2cc(NC(=O)Cc3ccccc3)ccc2O[C@@H](C)CCCCO[C@@H]1CN(C)C(=O)c1ccccc1	inactive: 0.98
CC(C)CC#Cc1ccc2c(c1)O[C@H](CN(C)C(=O)c1ccncc1)[C@H](C)CN([C@H](C)CO)S2(=O)=O	inactive: 0.966
COc1ccc(CN(C)C[C@@H]2OCCCC[C@H](C)Oc3ccc(NC(=O)Nc4cccc5ccccc45)cc3C(=O)N([C@@H](C)CO)C[C@@H]2C)cc1	inactive: 0.998
CC(C)c1nc(C(=O)N2CCC[C@@H](N)CC2)cs1	inactive: 0.976
Cc1noc(C)c1NC(=O)N(C)C[C@@H]1Oc2ccc(NS(=O)(=O)c3c(C)noc3C)cc2CC(=O)N([C@@H](C)CO)C[C@H]1C	inactive: 0.972
CCCC(=O)Nc1ccc2c(c1)C(=O)N(C)C[C@@H](OC)[C@H](C)CN(C(=O)Cc1cccnc1)[C@H](C)CO2	inactive: 1.01
Cc1noc(C)c1NC(=O)Nc1cccc2c1O[C@H](CN(C)C(=O)Nc1ccc(C(F)(F)F)cc1)[C@H](C)CN([C@H](C)CO)C2=O	inactive: 0.992
CN1CCN(C(=O)C[C@H]2CC[C@H]3[C@@H](COc4ccc(NC(=O)C5CCCCC5)cc4C(=O)N3C)O2)CC1	inactive: 0.997
C[C@@H]1CN([C@@H](C)CO)C(=O)CCCn2cc(nn2)CO[C@@H]1CN(C)S(C)(=O)=O	inactive: 0.987
COc1ccccc1C#Cc1cnc2c(c1)C(=O)N([C@@H](C)CO)C[C@H](C)[C@@H](CN(C)C(=O)c1ccc3c(c1)OCO3)O2	inactive: 1.03
COc1cccc(S(=O)(=O)N(C)C[C@@H]2Oc3ncc(C#CCC(C)C)cc3C(=O)N([C@@H](C)CO)C[C@H]2C)c1	inactive: 1.04
C[C@H]1CN([C@@H](C)CO)C(=O)c2cc(/C=C/c3ccccc3)cnc2O[C@@H]1CN(C)C(=O)Nc1ccc(C(F)(F)F)cc1	inactive: 1.02
C[C@H](CO)N1C[C@H](C)[C@@H](CN(C)Cc2ccc(C(=O)Nc3ccccc3N)cc2)Oc2c(NS(=O)(=O)c3ccc(Cl)cc3)cccc2C1=O	inactive: 1.02

Structure (SMILES)	relative growth
C[C@@H]1CN([C@@H](C)CO)C(=O)c2cc(NC(=O)CCN3CCOCC3)ccc2O[C@H]1CN(C)CC1CCCCC1	inactive: 0.971
Cc1noc(C)c1NC(=O)Nc1ccc2c(c1)C(=O)N([C@H](C)CO)C[C@H](C)[C@H](CN(C)S(=O)(=O)c1ccccc1)O2	inactive: 0.999
C[C@@H]1CN([C@H](C)CO)C(=O)c2cccc(NS(=O)(=O)c3ccc(Cl)cc3)c2O[C@@H]1CN(C)Cc1ccc(-c2ccccc2)cc1	inactive: 1.06
C[C@@H]1CN([C@@H](C)CO)C(=O)Cc2cc(NC(=O)Cn3cnnn3)ccc2O[C@@H]1CN(C)S(C)(=O)=O	inactive: 0.99
CO[C@H]1CN(C)C(=O)c2cc(NS(C)(=O)=O)ccc2OC[C@H](C)N(C(=O)c2ccc3c(c2)OCO3)C[C@H]1C	inactive: 0.963
CCCCCCCCCCCCC[N+](C)(C)Cc1ccccc1.O.[Cl-]	active: 0.0544
C[C@@H]1CCCCO[C@@H](CN(C)Cc2ccc(Cl)c(Cl)c2)[C@H](C)CN([C@@H](C)CO)C(=O)c2cc(NC(=O)Nc3ccccc3)ccc2O1	inactive: 0.994
CCC(=O)N[C@@H]1C=C[C@H](CC(=O)OC)O[C@H]1CO	inactive: 1.01
C[C@@H]1CCCCO[C@@H](CN(C)Cc2ccc3c(c2)OCO3)[C@H](C)CN([C@@H](C)CO)C(=O)c2cc(NC(=O)Nc3cccc4ccccc34)ccc2O1	inactive: 0.991
C[C@@H]1CCCCO[C@@H](CN(C)Cc2ccc3c(c2)OCO3)[C@H](C)CN([C@@H](C)CO)C(=O)c2cc(NC(=O)CCC(F)(F)F)ccc2O1	inactive: 1.03
C[C@H](CO)N1C[C@H](C)[C@H](CN(C)S(=O)(=O)c2cn(C)cn2)Oc2ncc(C#Cc3cccc(F)c3)cc2C1=O	inactive: 0.965
CN1CCN(C(=O)C[C@@H]2CC[C@H]3[C@@H](COC[C@H](O)CN3C(=O)C3CC3)O2)CC1	inactive: 0.964
C[C@@H]1CCCCO[C@@H](CN(C)S(=O)(=O)c2cccs2)[C@@H](C)CN([C@H](C)CO)C(=O)c2cc(NS(=O)(=O)c3ccc(Cl)cc3)ccc2O1	inactive: 0.969
CCS(=O)(=O)NCC[C@H]1CC[C@H](NC(=O)Cc2ccccn2)[C@@H](CO)O1	inactive: 1.01
CN(C)C(=O)C[C@H]1CC[C@@H](NC(=O)C2CC2)[C@H](CO)O1	inactive: 0.983
COc1ccc(NC(=O)N(C)C[C@H]2OCCCC[C@@H](C)Oc3ccc(NC(=O)NC(C)C)cc3C(=O)N([C@H](C)CO)C[C@H]2C)cc1	inactive: 0.976
Cc1noc(C)c1NC(=O)Nc1ccc2c(c1)C(=O)N([C@H](C)CO)C[C@@H](C)[C@@H](CN(C)Cc1ccc(C(=O)O)cc1)OCCCC[C@@H](C)O2	inactive: 0.994
C[C@H]1CN([C@@H](C)CO)C(=O)c2cccc(NS(=O)(=O)c3ccc(Cl)cc3)c2O[C@@H]1CN(C)Cc1ccc(Cl)c(Cl)c1	inactive: 0.981
O=C(Nc1ccc(C(F)(F)F)cc1)Nc1ccc2c(c1)[C@H]1C[C@@H](CC(=O)N3CCc4ccccc4C3)O[C@@H](CO)[C@H]1O2	inactive: 1.03
Cc1noc(C)c1S(=O)(=O)Nc1ccc2c(c1)C(=O)N([C@@H](C)CO)C[C@@H](C)[C@@H](CN(C)C(=O)NC(C)C)O2	inactive: 1.01

Structure (SMILES)	relative growth
C[C@H]1CCCCO[C@@H](CN(C)C(=O)c2ccccc2)[C@@H](C)CN([C@@H](C)CO)C(=O)c2cc(NC(=O)c3ccccc3)ccc2O1	inactive: 1.01
C[C@H]1CCCCO[C@@H](CN(C)S(=O)(=O)c2ccccc2)[C@@H](C)CN([C@@H](C)CO)C(=O)c2cc(NC(=O)NC3CCCCC3)ccc2O1	inactive: 1.01
C[C@@H]1CN([C@H](C)CO)C(=O)c2cc(NS(C)(=O)=O)ccc2O[C@@H]1CN(C)C(=O)Nc1ccc2c(c1)OCO2	inactive: 0.984
C[C@@H]1CCCCO[C@H](CN(C)C(=O)C2CCCCC2)[C@@H](C)CN([C@H](C)CO)C(=O)c2cc(NC(=O)C3CCCCC3)ccc2O1	inactive: 1
O=C(C[C@H]1CC[C@@H]2[C@H](COC[C@@H](O)CN2C(=O)c2cccnc2)O1)NCc1ccc(-c2ccccc2)cc1	inactive: 1.03
CNC[C@@H]1Oc2ccc(NC(=O)CCN3CCOCC3)cc2CC(=O)N([C@H](C)CO)C[C@@H]1C	inactive: 0.985
C[C@@H]1CCCCO[C@H](CN(C)Cc2ccccc2)[C@@H](C)CN([C@H](C)CO)C(=O)c2cc(NS(=O)(=O)c3ccccc3)ccc2O1	inactive: 1.01
COc1ccc(NC(=O)N(C)C[C@@H]2Oc3ccc(NC(=O)CCCCCC(=O)Nc4ccccc4N)cc3CC(=O)N([C@@H](C)CO)C[C@@H]2C)cc1	inactive: 1.02
N[C@H]1CCS(=O)(=O)C1	inactive: 0.986
CC1(C)SC2C(NC(=O)COc3ccccc3)C(=O)N2C1C(=O)[O-].[K+] (centres undefined)	inactive: 0.598
CC(=O)NCCOCCOCC(=O)N[C@@H]1C/C=C/CCC(=O)N[C@H](c2ccccc2)COC1=O	inactive: 1
COc1ccc(NC(=O)N(C)C[C@@H]2Oc3c(NC(=O)Nc4cccc5ccccc45)cccc3C(=O)N([C@H](C)CO)C[C@@H]2C)cc1	inactive: 1.01
CC(=O)Nn1cc(C(=O)O)c2ccccc2c1=O	inactive: 0.968
C[C@@H]1CCCCO[C@H](CN(C)Cc2ccc(C(=O)O)cc2)[C@H](C)CN([C@@H](C)CO)C(=O)c2cc(NC(=O)Nc3ccc4c(c3)OCO4)ccc2O1	inactive: 0.972
COC(=O)C(CCCN1C(=O)c2ccccc2C1=O)(NC(C)=O)c1nn[nH]n1 (centres undefined)	inactive: 0.922
O=C(C[C@H]1C=C[C@@H](NC(=O)Nc2ccc3c(c2)OCO3)[C@H](CO)O1)NCCCN1CCOCC1	inactive: 0.957
O=C(C[C@@H]1CC[C@@H]2[C@H](COC[C@@H](O)CN2C(=O)Nc2ccc(C(F)(F)F)cc2)O1)NCCc1ccncc1	inactive: 0.93
C[C@H](CO)N1C[C@H](C)[C@H](CN(C)Cc2ccc(C(F)(F)F)cc2)Oc2ccc(NC(=O)Nc3ccc(C(F)(F)F)cc3)cc2CC1=O	inactive: 1.02
C[C@@H]1CCCCO[C@@H](CN(C)Cc2ccc(C(=O)O)cc2)[C@@H](C)CN([C@@H](C)CO)C(=O)c2cc(NC(=O)NC3CCCCC3)ccc2O1	inactive: 1.03
